# Laboratory results taken from the supplement of paper PMC8728848.
# The other results are listed elsewhere or left out.
# B1: LecB PA14 (Pseudomonas aeruginosa) (protein)
# chain: MATQGVFTLPANTQFGVTAFANSAGTQTVNVQVNNETVATFTGQSTNNAIIGSKVLNSGGGGKVQILVSVNGRSSDLVSAQVILANELNFALVGSEDSTDNDYNDAVVVINWPLG
# Legend:
# Experiment in all cases: glycan array binding signal (z-score within array); higher = stronger binding
# Conditions in all cases: glycan notation: IUPAC condensed, linker removed
# [1] = target: Gal(b1-3)GlcNAc(b1-6)[Gal(b1-3)]GalNAc
# Procedure, shortened: (§1)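 Arrays were curated from the Consortium for Functional Glycomics database, 3228 in total, and kept only where the protein sequence was available. Binding is expressed as a within-array Z-score. This score was averaged across arrays of the same protein sequence at different concentrations or buffers and across linkers, and negative values can be read as non-binding.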
# [2] = target: Gal(b1-3)GlcNAc6S
# Procedure, shortened: as §1
# [3] = target: Gal(b1-3)[Fuc(a1-4)]GlcNAc
# Procedure, shortened: as §1
# [4] = target: Gal(b1-3)[Fuc(a1-4)]GlcNAc(b1-2)Man
# Procedure, shortened: as §1
# [5] = target: Gal(b1-3)[Fuc(a1-4)]GlcNAc(b1-2)Man(a1-3)[Gal(b1-3)[Fuc(a1-4)]GlcNAc(b1-2)Man(a1-6)]Man(b1-4)GlcNAc(b1-4)[Fuc(a1-6)]GlcNAc
# Procedure, shortened: as §1
# [6] = target: Gal(b1-3)[Fuc(a1-4)]GlcNAc(b1-3)Gal(b1-3)[Fuc(a1-4)]GlcNAc
# Procedure, shortened: as §1
# [7] = target: Gal(b1-3)[Fuc(a1-4)]GlcNAc(b1-3)Gal(b1-4)[Fuc(a1-3)]GlcNAc
# Procedure, shortened: as §1
# [8] = target: Gal(b1-3)[Fuc(a1-4)]GlcNAc(b1-6)GalNAc
# Procedure, shortened: as §1
# [9] = target: Gal(b1-3)[GlcNAc(b1-6)]GalNAc
# Procedure, shortened: as §1
# [10] = target: Gal(b1-3)[Neu5Ac(a2-6)]GalNAc
# Procedure, shortened: as §1
# [11] = target: Gal(b1-3)[Neu5Ac(a2-6)]GlcNAc(b1-4)Gal(b1-4)Glc
# Procedure, shortened: as §1
# [12] = target: Gal(b1-3)[Neu5Ac(b2-6)]GalNAc
# Procedure, shortened: as §1
# [13] = target: Gal(b1-4)Gal
# Procedure, shortened: as §1
# [14] = target: Gal(b1-4)GalNAc(a1-3)[Fuc(a1-2)]Gal(b1-4)GlcNAc
# Procedure, shortened: as §1
# [15] = target: Gal(b1-4)GalNAc(b1-3)[Fuc(a1-2)]Gal(b1-4)GlcNAc
# Procedure, shortened: as §1
# [16] = target: Gal(b1-4)Glc
# Procedure, shortened: as §1
# [17] = target: Gal(b1-4)Glc6S
# Procedure, shortened: as §1
# [18] = target: Gal(b1-4)GlcNAc
# Procedure, shortened: as §1
# [19] = target: Gal(b1-4)GlcNAc(a1-6)Gal(b1-4)GlcNAc
# Procedure, shortened: as §1
# [20] = target: Gal(b1-4)GlcNAc(b1-2)Man
# Procedure, shortened: as §1
# [21] = target: Gal(b1-4)GlcNAc(b1-2)Man(a1-3)Man(b1-4)GlcNAc(b1-4)GlcNAc
# Procedure, shortened: as §1
# [22] = target: Gal(b1-4)GlcNAc(b1-2)Man(a1-3)[Gal(b1-4)GlcNAc(b1-2)Man(a1-6)]Man(b1-4)GlcNAc(b1-4)GlcNAc
# Procedure, shortened: as §1
# [23] = target: Gal(b1-4)GlcNAc(b1-2)Man(a1-3)[Gal(b1-4)GlcNAc(b1-2)Man(a1-6)]Man(b1-4)GlcNAc(b1-4)[Fuc(a1-6)]GlcNAc
# Procedure, shortened: as §1
# [24] = target: Gal(b1-4)GlcNAc(b1-2)Man(a1-3)[Gal(b1-4)GlcNAc(b1-2)Man(a1-6)][Gal(b1-4)GlcNAc(b1-4)]Man(b1-4)GlcNAc(b1-4)[Fuc(a1-6)]GlcNAc
# Procedure, shortened: as §1
# [25] = target: Gal(b1-4)GlcNAc(b1-2)Man(a1-3)[Gal(b1-4)GlcNAc(b1-2)Man(a1-6)][GlcNAc(b1-4)]Man(b1-4)GlcNAc(b1-4)[Fuc(a1-6)]GlcNAc
# Procedure, shortened: as §1
# [26] = target: Gal(b1-4)GlcNAc(b1-2)Man(a1-3)[GlcNAc(b1-2)Man(a1-6)]Man(b1-4)GlcNAc(b1-4)GlcNAc
# Procedure, shortened: as §1
# [27] = target: Gal(b1-4)GlcNAc(b1-2)Man(a1-3)[GlcNAc(b1-4)][Gal(b1-4)GlcNAc(b1-2)Man(a1-6)]Man(b1-4)GlcNAc(b1-4)GlcNAc
# Procedure, shortened: as §1
# [28] = target: Gal(b1-4)GlcNAc(b1-2)Man(a1-3)[Man(a1-6)]Man(b1-4)GlcNAc(b1-4)GlcNAc
# Procedure, shortened: as §1
# [29] = target: Gal(b1-4)GlcNAc(b1-2)Man(a1-6)Man(b1-4)GlcNAc(b1-4)GlcNAc
# Procedure, shortened: as §1
# [30] = target: Gal(b1-4)GlcNAc(b1-2)Man(a1-6)[GlcNAc(b1-2)Man(a1-3)]Man(b1-4)GlcNAc(b1-4)GlcNAc
# Procedure, shortened: as §1
# [31] = target: Gal(b1-4)GlcNAc(b1-2)Man(a1-6)[Man(a1-3)]Man(b1-4)GlcNAc(b1-4)GlcNAc
# Procedure, shortened: as §1
# [32] = target: Gal(b1-4)GlcNAc(b1-2)[Gal(b1-4)GlcNAc(b1-4)]Man(a1-3)[Gal(b1-4)GlcNAc(b1-2)Man(a1-6)]Man(b1-4)GlcNAc(b1-4)GlcNAc
# Procedure, shortened: as §1
# [33] = target: Gal(b1-4)GlcNAc(b1-2)[Gal(b1-4)GlcNAc(b1-4)]Man(a1-3)[Gal(b1-4)GlcNAc(b1-2)[Gal(b1-4)GlcNAc(b1-6)]Man(a1-6)]Man(b1-4)GlcNAc(b1-4)GlcNAc
# Procedure, shortened: as §1
# [34] = target: Gal(b1-4)GlcNAc(b1-2)[Gal(b1-4)GlcNAc(b1-4)]Man(a1-3)[GlcNAc(b1-4)][Gal(b1-4)GlcNAc(b1-2)Man(a1-6)]Man(b1-4)GlcNAc(b1-4)GlcNAc
# Procedure, shortened: as §1
# [35] = target: Gal(b1-4)GlcNAc(b1-2)[Gal(b1-4)GlcNAc(b1-4)]Man(a1-3)[GlcNAc(b1-4)][Gal(b1-4)GlcNAc(b1-2)[Gal(b1-4)GlcNAc(b1-6)]Man(a1-6)]Man(b1-4)GlcNAc(b1-4)GlcNAc
# Procedure, shortened: as §1
# [36] = target: Gal(b1-4)GlcNAc(b1-2)[Gal(b1-4)GlcNAc(b1-6)]Man(a1-6)[Gal(b1-4)GlcNAc(b1-2)Man(a1-3)]Man(b1-4)GlcNAc(b1-4)GlcNAc
# Procedure, shortened: as §1
# [37] = target: Gal(b1-4)GlcNAc(b1-2)[Gal(b1-4)GlcNAc(b1-6)]Man(a1-6)[Gal(b1-4)GlcNAc(b1-2)Man(a1-3)]Man(b1-4)GlcNAc(b1-4)[Fuc(a1-6)]GlcNAc
# Procedure, shortened: as §1
# [38] = target: Gal(b1-4)GlcNAc(b1-2)[Gal(b1-4)GlcNAc(b1-6)]Man(a1-6)[GlcNAc(b1-4)][Gal(b1-4)GlcNAc(b1-2)Man(a1-3)]Man(b1-4)GlcNAc(b1-4)GlcNAc
# Procedure, shortened: as §1
# [39] = target: Gal(b1-4)GlcNAc(b1-2)[Gal(b1-4)GlcNAc(b1-6)]Man(a1-6)[GlcNAc(b1-4)][Gal(b1-4)GlcNAc(b1-2)[Gal(b1-4)GlcNAc(b1-4)]Man(a1-3)]Man(b1-4)GlcNAc(b1-4)[Fuc(a1-6)]GlcNAc
# Procedure, shortened: as §1
# [40] = target: Gal(b1-4)GlcNAc(b1-3)Gal(b1-3)GalNAc
# Procedure, shortened: as §1
# [41] = target: Gal(b1-4)GlcNAc(b1-3)Gal(b1-3)GlcNAc
# Procedure, shortened: as §1
# [42] = target: Gal(b1-4)GlcNAc(b1-3)Gal(b1-4)Glc
# Procedure, shortened: as §1
# [43] = target: Gal(b1-4)GlcNAc(b1-3)Gal(b1-4)GlcNAc
# Procedure, shortened: as §1
# [44] = target: Gal(b1-4)GlcNAc(b1-3)Gal(b1-4)GlcNAc(b1-2)Man(a1-3)[Gal(b1-4)GlcNAc(b1-3)Gal(b1-4)GlcNAc(b1-2)Man(a1-6)]Man(b1-4)GlcNAc(b1-4)GlcNAc
# Procedure, shortened: as §1
# [45] = target: Gal(b1-4)GlcNAc(b1-3)Gal(b1-4)GlcNAc(b1-2)Man(a1-3)[Gal(b1-4)GlcNAc(b1-3)Gal(b1-4)GlcNAc(b1-2)Man(a1-6)]Man(b1-4)GlcNAc(b1-4)[Fuc(a1-6)]GlcNAc
# Procedure, shortened: as §1
binder,measurement,setting,value
B1,glycan array binding signal (z-score),[1],-0.632
same,glycan array binding signal (z-score),[2],-0.67
same,glycan array binding signal (z-score),[3],0.551
same,glycan array binding signal (z-score),[4],0.531
same,glycan array binding signal (z-score),[5],-0.16
same,glycan array binding signal (z-score),[6],1.4
same,glycan array binding signal (z-score),[7],0.012
same,glycan array binding signal (z-score),[8],1.1
same,glycan array binding signal (z-score),[9],-0.021
same,glycan array binding signal (z-score),[10],-0.431
same,glycan array binding signal (z-score),[11],-0.183
same,glycan array binding signal (z-score),[12],-0.435
same,glycan array binding signal (z-score),[13],0.891
same,glycan array binding signal (z-score),[14],0.342
same,glycan array binding signal (z-score),[15],-0.285
same,glycan array binding signal (z-score),[16],-0.334
same,glycan array binding signal (z-score),[17],0.179
same,glycan array binding signal (z-score),[18],-0.238
same,glycan array binding signal (z-score),[19],-0.201
same,glycan array binding signal (z-score),[20],-0.837
same,glycan array binding signal (z-score),[21],0.02
same,glycan array binding signal (z-score),[22],-0.479
same,glycan array binding signal (z-score),[23],-0.349
same,glycan array binding signal (z-score),[24],0.6
same,glycan array binding signal (z-score),[25],0.268
same,glycan array binding signal (z-score),[26],0.016
same,glycan array binding signal (z-score),[27],-0.531
same,glycan array binding signal (z-score),[28],-0.394
same,glycan array binding signal (z-score),[29],-0.087
same,glycan array binding signal (z-score),[30],-0.579
same,glycan array binding signal (z-score),[31],0.002
same,glycan array binding signal (z-score),[32],0.089
same,glycan array binding signal (z-score),[33],0.244
same,glycan array binding signal (z-score),[34],-0.781
same,glycan array binding signal (z-score),[35],-0.481
same,glycan array binding signal (z-score),[36],-0.657
same,glycan array binding signal (z-score),[37],-0.411
same,glycan array binding signal (z-score),[38],-0.61
same,glycan array binding signal (z-score),[39],-0.293
same,glycan array binding signal (z-score),[40],-0.179
same,glycan array binding signal (z-score),[41],-0.586
same,glycan array binding signal (z-score),[42],-0.622
same,glycan array binding signal (z-score),[43],-0.465
same,glycan array binding signal (z-score),[44],-0.233
same,glycan array binding signal (z-score),[45],0.599
